Source: PubChem BioAssay AID1476 (National Center for Advancing Translational Sciences (NCATS), 2009)
Hit rate of the full screen: of about 200,000 compounds, about 4,500 (2.2%) were called active. The inconclusive results got no clear call from the source; some entries with a clear call stand among them for comparison. The call rests on the fitted dose curve; in most records, active means well fitted inhibition curve with a large enough effect; inconclusive means small, poorly fitted or top-dose-only effect, or effect the other way; inactive means flat fitted curve, though single readings scatter. A potency beside an inconclusive call is a rough fit, not a confirmed value.

biological target: Cruzipain (Trypanosoma cruzi) (UniProt P25779); assay: qHTS Assay for Promiscuous and Specific Inhibitors of Cruzain (without detergent); settings: purified cruzain, Z-FR-AMC fluorescence, no detergent; further: nearly all actives have a fitted effect of over 40% in size;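 on max response, negative = inhibition: plate controls were enzyme without inhibitor for no effect and buffer without enzyme for full effect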
In short: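 Detergent-free condition (0.00005% Triton X-100) in acetate buffer pH 5.5 with DTT. 1.5 nM enzyme and compound were pre-mixed 15 min, then 2 uM Z-FR-AMC substrate added; reaction progress from fluorescence change between first and third reads (60 s).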
Potency means the concentration at half of the fitted maximal effect; tags describe the fitted curve by direction and shape.

Chain of UniProt P25779 (P25779 whole entry, looked up): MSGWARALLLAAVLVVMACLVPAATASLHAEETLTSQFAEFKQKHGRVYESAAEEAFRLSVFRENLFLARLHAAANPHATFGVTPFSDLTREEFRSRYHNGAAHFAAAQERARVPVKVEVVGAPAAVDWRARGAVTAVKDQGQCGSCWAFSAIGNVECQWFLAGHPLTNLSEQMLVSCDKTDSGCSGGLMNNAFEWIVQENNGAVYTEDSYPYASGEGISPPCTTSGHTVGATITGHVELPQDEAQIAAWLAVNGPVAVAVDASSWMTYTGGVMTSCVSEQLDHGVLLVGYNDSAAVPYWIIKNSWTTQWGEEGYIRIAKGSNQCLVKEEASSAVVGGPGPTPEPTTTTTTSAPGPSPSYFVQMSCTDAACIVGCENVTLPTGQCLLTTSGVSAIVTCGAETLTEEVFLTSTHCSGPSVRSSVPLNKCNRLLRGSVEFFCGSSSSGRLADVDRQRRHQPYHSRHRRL

| Compound | max response, negative = inhibition | Potency |
| --- | --- | --- |
| Cc1c(-c2nnc(SCC(=O)Nc3ccc(Br)cc3)o2)nnn1-c1ccc(F)cc1 | inactive: 5.44% |  |
| Cc1ccc(S(=O)(=O)N2CCCc3cc(NS(=O)(=O)c4ccc(C)c(C)c4)ccc32)cc1 |  | inconclusive: 39.8 µM [inhibitor, single point] |
| Nc1cc(=O)[nH]c(SCc2cccc(Cl)c2)n1 |  | inconclusive: 31.6 µM [inhibitor, single point] |
| COc1ccc(C2CC(=O)c3cc(-c4nc(-c5cccc([N+](=O)[O-])c5)cs4)c(=O)n(-c4ccc(F)cc4)c3C2)cc1 (stereo unspecified) |  | active: 1 µM |
| Cc1ccc(-c2nc(P(=O)(c3ccccc3)c3ccccc3)c(N3CCOCC3)o2)cc1 |  | inconclusive: 3.16 µM [inhibitor, partial curve] |
| COc1cc(/C=C(\C#N)c2nc3ccccc3[nH]2)cc(Br)c1OCc1ccc(F)cc1 |  | active: 25.1 µM |
| COc1ccc(Nc2nc(Nc3ccc(OC)cc3OC)nc(N3CCOCC3)n2)c(OC)c1 | inactive: 4.13% |  |
| O=C(C1CCC(=O)N1C1CCCCC1)N1CCC2(CC1)OCCO2 (stereo unspecified) | inactive: -9.63% |  |
| CCn1c2ccccc2c2cc(NC(=O)CCCN3C(=O)CCC3=O)ccc21 |  | inconclusive: 39.8 µM [activator, single point] |
| CCCCNC(=O)CN1C(=O)c2c(c3ccccc3n2C)C1c1ccc(OC)cc1 (stereo unspecified) |  | inconclusive: 39.8 µM [activator, single point] |
| COc1ccc(-n2c(NC(=O)c3ccc(Br)o3)c(C#N)c3nc4ccccc4nc32)cc1 |  | inconclusive: 12.6 µM [activator, partial curve] |
| CC(C)(C)C(=O)Nc1nc2nc(-c3ccccc3)cc(=O)n2[nH]1 | inactive: -10.6% |  |
| N#Cc1cc2c(N)c(C(=O)Nc3ccccc3)sc2nc1N |  | inconclusive: 39.8 µM [inhibitor, single point] |
| O=C(/C=C/Nc1ccc([N+](=O)[O-])cc1)c1ccc(Br)cc1 |  | active: 20 µM |
| CCCCCCCCCCCCC/C=C\[C@@H](O)[C@@H](N)CO | inactive: 10.7% |  |
| Cc1ccc(CNS(=O)(=O)c2cc(Br)cc3c2N(C(=O)C2CC2)CC3)cc1 |  | inconclusive: 39.8 µM [inhibitor, single point] |
| COc1ccccc1NC(=O)N(Cc1cc2cc(OC)c(OC)cc2[nH]c1=O)CC1CCCO1 (stereo unspecified) |  | inconclusive: 39.8 µM [activator, single point] |
| Cc1cc(C)cc(NC(c2nnc(-c3cccc(F)c3)o2)c2ccc(F)cc2Cl)c1 (stereo unspecified) |  | inconclusive: 39.8 µM [inhibitor, single point] |
| CN(C)C(=O)CSc1nnc([C@H](Cc2c[nH]c3ccccc23)NC(=O)OC(C)(C)C)o1 |  | inconclusive: 31.6 µM [activator, single point] |
| O=C(NCc1ccccc1)c1ccc2c(c1)N(Cc1ccccc1)C(=O)c1ccccc1S2(=O)=O |  | inconclusive: 25.1 µM [inhibitor, single point] |
| CCCOc1ccccc1C1C(C(=O)OC)=CN(C(C)C)C=C1C(=O)OC |  | inconclusive: 25.1 µM [activator, partial curve] |

| Compound | max response, negative = inhibition | Potency |
| --- | --- | --- |
| COc1ccc(N2CCN(C(=O)CSc3nnc(-c4cccnc4)n3-c3ccc(F)cc3)CC2)cc1 |  | inconclusive: 31.6 µM [activator, single point] |
| NC(=O)CSc1oc(-c2cccs2)nc1S(=O)(=O)c1ccc(Br)cc1 | inactive: -5.32% |  |
| CCOC(=O)c1c(C)n(C)c2ccc(OC(C)C(=O)OC)cc12 (stereo unspecified) |  | inconclusive: 31.6 µM [activator, single point] |
| Cc1cccc(C(=O)Nc2ccc(C(=O)OCc3cc(=O)n4c(C)csc4n3)cc2)c1 | inactive: -1.05% |  |
| CCCCOc1cccc(C(=O)N(Cc2ccc(Br)o2)C2CCS(=O)(=O)C2)c1 (stereo unspecified) |  | inconclusive: 39.8 µM [activator, single point] |
| COCCCn1c(SCC(=O)n2c(C)c(C)c3ccccc32)nnc1-c1ccoc1C |  | inconclusive: 39.8 µM [activator, single point] |
| Cc1ccc(Cl)cc1NC(=O)CC1Sc2ccccc2NC1=O (stereo unspecified) | inactive: 8.63% |  |
| COc1ccc(/C=C/C(=O)c2ccncc2)c2ccccc12 |  | inconclusive: 39.8 µM [activator, single point] |
| CCCCCCCCCCCCCCC1CO1 (stereo unspecified) | inactive: 11.3% |  |
| COc1cc2c(cc1NC(=O)C(C)OC(=O)C1CC(=O)N(Cc3ccco3)C1)oc1ccccc12 (stereo unspecified) |  | inconclusive: 25.1 µM [activator, single point] |
| COc1cc(CNc2ccc3[nH]c(=O)[nH]c3c2)cc(Br)c1OCc1ccccc1F |  | inconclusive: 39.8 µM [inhibitor, single point] |
| CC1CN(S(=O)(=O)c2ccc(C(=O)Nc3nc(-c4cc5ccccc5o4)cs3)cc2)CC(C)O1 (stereo unspecified) |  | inconclusive: 15.8 µM [inhibitor, single point] |
| COc1ccc2oc(-c3ccc(O)cc3)cc(=O)c2c1 |  | inconclusive: 39.8 µM [activator, single point] |
| COc1cccc(NC(=O)N(Cc2cn(C)c3ccccc23)C2CCCCCC2)c1 |  | inconclusive: 39.8 µM [inhibitor, single point] |
| CCN1CCN(c2cc(C)c3cc(NC(=O)/C=C/c4ccc(C)cc4)ccc3n2)CC1 | inactive: -0.519% |  |
| O=[N+]([O-])c1ccc(O)c(/C=N\N=C2c3ccccc3-c3ccccc32)c1 |  | inconclusive: 25.1 µM [inhibitor, single point] |
| Cc1cnc(=O)[nH]c1SCC(=O)Nc1cc(C(F)(F)F)ccc1Cl | inactive: -14.4% |  |
| Cc1ccc(CNC(=O)CCCN2C(=O)CCn3nc(-c4cccn4C)cc32)cc1 |  | inconclusive: 31.6 µM [activator, single point] |
| CCCOc1ccc(CNC(=O)C2CCN(C(=O)c3sccc3-n3cccc3)CC2)cc1 |  | inconclusive: 31.6 µM [activator, single point] |
| CCOc1ccc(-n2c(=O)c3c4c(sc3n(CC(=O)NCc3ccco3)c2=O)CCC4)cc1 |  | inconclusive: 39.8 µM [inhibitor, single point] |
